# This is one part of the list.
# B1: PX14343A-bvu-539-29-539 (Bacteroides vulgatus) (protein)
# chain: DSLTESSSNTFWQTPDDALMALASCYDALQSNQLYNSDQYSLGPLYMDCISDNGGHFNWSGWMEGYDMAMGIHTPSSSIIGSYWKDCYEVISRCNVLIANIDRVDMDASQKAIYQAEAKTIRALMYINLTMTYQDVPFLTAPLTIDEAECEKTDRAAIVAHVMTDLQDAAEVLPQNASSRGHITKGAALSLLGRVALYNEKWDDAIAAYKQVQGLGYSLDPSYAKLFTQSGETSPEIIFAVRYEGPGMSEGAAFNAHWNTPLEAMNGTIDLADAYYCKDGKPTTDTKIAELNGGGGLDVSKPNPAHFENRDPRLYSTLFVPGMLWNGKGGIDTSASNPYANVYGGAAASLSTVYVYKYFDPTDTSNSWDNGQDFYVVRYAEVLLSLAEAMVQKGGYVYSDVTALVNEVRQRADVNMPTVEEVEGTSLSKDELLEVIKHERRVELAFEGLRLFDLYRWKELDKAVANIENERTMYGLAYEARKFNGERDYVWPLPTAELDTNKKLVQHDLWK
# Assays:
# Experiment in all cases: glycan array binding signal (z-score within array); higher = stronger binding
# Settings in all cases: glycan notation: IUPAC condensed, linker removed
# [1] = molecular target: Fuc(a1-2)[Gal(a1-3)]Gal(b1-4)GlcNAc(b1-2)Man(a1-3)[Fuc(a1-2)[Gal(a1-3)]Gal(b1-4)GlcNAc(b1-2)Man(a1-6)]Man(b1-4)GlcNAc(b1-4)[Fuc(a1-6)]GlcNAc
# Procedure, shortened: (§1)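 Glycan array binding is given as a within-array Z-score, which can be read as non-binding when negative. The arrays, 3228 of them, came from the Consortium for Functional Glycomics database and were retained only where the protein sequence was available. Z-scores were averaged across arrays of the same protein sequence at different concentrations or buffers and across linkers.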
# [2] = molecular target: Fuc(a1-2)[Gal(a1-3)]Gal(b1-4)GlcNAc(b1-3)GalNAc
# Procedure, shortened: as §1
# [3] = molecular target: Fuc(a1-2)[Gal(a1-3)]Gal(b1-4)GlcNAc(b1-3)[Fuc(a1-2)[Gal(a1-3)]Gal(b1-4)GlcNAc(b1-6)]GalNAc
# Procedure, shortened: as §1
# [4] = molecular target: Fuc(a1-2)[Gal(a1-3)]Gal(b1-4)GlcNAc(b1-6)GalNAc
# Procedure, shortened: as §1
# [5] = molecular target: Fuc(a1-2)[Gal(a1-3)]Gal(b1-4)[Fuc(a1-3)]Glc
# Procedure, shortened: as §1
# [6] = molecular target: Fuc(a1-2)[Gal(a1-3)]Gal(b1-4)[Fuc(a1-3)]GlcNAc
# Procedure, shortened: as §1
# [7] = molecular target: Fuc(a1-2)[Gal(a1-3)]Gal(b1-4)[Fuc(a1-3)]GlcNAc(b1-3)GalNAc
# Procedure, shortened: as §1
# [8] = molecular target: Fuc(a1-2)[Gal(a1-4)]Gal(b1-4)GlcNAc
# Procedure, shortened: as §1
# [9] = molecular target: Fuc(a1-2)[GalNAc(a1-3)]Gal
# Procedure, shortened: as §1
# [10] = molecular target: Fuc(a1-2)[GalNAc(a1-3)]Gal(b1-3)GalNAc(a1-3)[Fuc(a1-2)]Gal(b1-4)GlcNAc
# Procedure, shortened: as §1
# [11] = molecular target: Fuc(a1-2)[GalNAc(a1-3)]Gal(b1-3)GalNAc(b1-3)Gal(a1-4)Gal(b1-4)Glc
# Procedure, shortened: as §1
# [12] = molecular target: Fuc(a1-2)[GalNAc(a1-3)]Gal(b1-3)GlcNAc
# Procedure, shortened: as §1
# [13] = molecular target: Fuc(a1-2)[GalNAc(a1-3)]Gal(b1-3)GlcNAc(b1-2)Man(a1-3)[Fuc(a1-2)[GalNAc(a1-3)]Gal(b1-3)GlcNAc(b1-2)Man(a1-6)]Man(b1-4)GlcNAc(b1-4)GlcNAc
# Procedure, shortened: as §1
# [14] = molecular target: Fuc(a1-2)[GalNAc(a1-3)]Gal(b1-3)GlcNAc(b1-2)Man(a1-3)[Fuc(a1-2)[GalNAc(a1-3)]Gal(b1-3)GlcNAc(b1-2)Man(a1-6)]Man(b1-4)GlcNAc(b1-4)[Fuc(a1-6)]GlcNAc
# Procedure, shortened: as §1
# [15] = molecular target: Fuc(a1-2)[GalNAc(a1-3)]Gal(b1-3)GlcNAc(b1-3)GalNAc
# Procedure, shortened: as §1
# [16] = molecular target: Fuc(a1-2)[GalNAc(a1-3)]Gal(b1-3)GlcNAc(b1-6)GalNAc
# Procedure, shortened: as §1
# [17] = molecular target: Fuc(a1-2)[GalNAc(a1-3)]Gal(b1-4)Glc
# Procedure, shortened: as §1
# [18] = molecular target: Fuc(a1-2)[GalNAc(a1-3)]Gal(b1-4)GlcNAc
# Procedure, shortened: as §1
# [19] = molecular target: Fuc(a1-2)[GalNAc(a1-3)]Gal(b1-4)GlcNAc(b1-2)Man
# Procedure, shortened: as §1
# [20] = molecular target: Fuc(a1-2)[GalNAc(a1-3)]Gal(b1-4)GlcNAc(b1-2)Man(a1-3)[Fuc(a1-2)[GalNAc(a1-3)]Gal(b1-4)GlcNAc(b1-2)Man(a1-6)]Man(b1-4)GlcNAc(b1-4)GlcNAc
# Procedure, shortened: as §1
# [21] = molecular target: Fuc(a1-2)[GalNAc(a1-3)]Gal(b1-4)GlcNAc(b1-2)Man(a1-3)[Fuc(a1-2)[GalNAc(a1-3)]Gal(b1-4)GlcNAc(b1-2)Man(a1-6)]Man(b1-4)GlcNAc(b1-4)[Fuc(a1-6)]GlcNAc
# Procedure, shortened: as §1
# [22] = molecular target: Fuc(a1-2)[GalNAc(a1-3)]Gal(b1-4)GlcNAc(b1-3)Gal(b1-4)GlcNAc
# Procedure, shortened: as §1
# [23] = molecular target: Fuc(a1-2)[GalNAc(a1-3)]Gal(b1-4)GlcNAc(b1-3)Gal(b1-4)GlcNAc(b1-3)Gal(b1-4)GlcNAc
# Procedure, shortened: as §1
# [24] = molecular target: Fuc(a1-2)[GalNAc(a1-3)]Gal(b1-4)GlcNAc(b1-3)GalNAc
# Procedure, shortened: as §1
# [25] = molecular target: Fuc(a1-2)[GalNAc(a1-3)]Gal(b1-4)GlcNAc(b1-3)[Fuc(a1-2)[GalNAc(a1-3)]Gal(b1-4)GlcNAc(b1-6)]GalNAc
# Procedure, shortened: as §1
# [26] = molecular target: Fuc(a1-2)[GalNAc(a1-3)]Gal(b1-4)GlcNAc(b1-6)GalNAc
# Procedure, shortened: as §1
# [27] = molecular target: Fuc(a1-2)[GalNAc(a1-3)]Gal(b1-4)[Fuc(a1-3)]GlcNAc
# Procedure, shortened: as §1
# [28] = molecular target: Fuc(a1-2)[GalNAc(a1-3)]Gal(b1-4)[Fuc(a1-3)]GlcNAc(b1-3)GalNAc
# Procedure, shortened: as §1
# [29] = molecular target: Fuc(a1-2)[GalNAc(a1-4)]Gal(b1-4)GlcNAc
# Procedure, shortened: as §1
# [30] = molecular target: Fuc(a1-2)[GalNAc(b1-3)]Gal
# Procedure, shortened: as §1
binder,measurement,setting,value
B1,glycan array binding signal (z-score),[1],0.314
same,glycan array binding signal (z-score),[2],0.003
same,glycan array binding signal (z-score),[3],7.49
same,glycan array binding signal (z-score),[4],-0.17
same,glycan array binding signal (z-score),[5],-0.243
same,glycan array binding signal (z-score),[6],0.751
same,glycan array binding signal (z-score),[7],0.281
same,glycan array binding signal (z-score),[8],0.386
same,glycan array binding signal (z-score),[9],-0.253
same,glycan array binding signal (z-score),[10],0.132
same,glycan array binding signal (z-score),[11],-0.256
same,glycan array binding signal (z-score),[12],-0.267
same,glycan array binding signal (z-score),[13],-0.46
same,glycan array binding signal (z-score),[14],-0.3
same,glycan array binding signal (z-score),[15],-0.347
same,glycan array binding signal (z-score),[16],-0.292
same,glycan array binding signal (z-score),[17],-0.387
same,glycan array binding signal (z-score),[18],-0.314
same,glycan array binding signal (z-score),[19],-0.396
same,glycan array binding signal (z-score),[20],0.385
same,glycan array binding signal (z-score),[21],-0.205
same,glycan array binding signal (z-score),[22],-0.354
same,glycan array binding signal (z-score),[23],0.052
same,glycan array binding signal (z-score),[24],-0.537
same,glycan array binding signal (z-score),[25],0.157
same,glycan array binding signal (z-score),[26],-0.065
same,glycan array binding signal (z-score),[27],-0.368
same,glycan array binding signal (z-score),[28],-0.171
same,glycan array binding signal (z-score),[29],0.146
same,glycan array binding signal (z-score),[30],-0.403

# From the supplement of paper PMC8728848
